Values marked as one replicate rest on one cluster of the flow cell; about a third of the high ones do not repeat.
System: ATP
Assay: switch fluorescence ratio, 500 uM ATP over buffer (Cy3 cluster intensity, sum of 5 cycles each) (fold (ratio)); higher = stronger signal-on switching upon ATP binding; sequences stand for … in TCGTCGGCAGCGTCAGATGTGTATAAGAGACAGTTTTTTTTTTTTTTTTTTTTTTTTT…TC
Settings: aptamer strand: ATP DNA aptamer (quencher-CACCTGGGGGAGTATTGCGGAGGAAGG + anchor), 100 nM annealed; ATP concentration: 500 uM; one replicate
Method in brief: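 Clusters with intensities outside 100-1000 RFU were excluded. The remaining Cy3-labelled switching-strand clusters on a modified Illumina MiSeq flow-cell had been annealed to 100 nM quencher-labelled ATP aptamer and imaged in selection buffer, then after 15 min with 500 uM ATP at 22 °C, for five cycles separated by NaOH stripping and re-annealing. The fluorescence ratio, averaged per switch-domain sequence, is each cluster's summed target-cycle Cy3 intensity over its summed buffer-cycle Cy3 intensity.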
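Note: ATP exposure 15 min at 22 °C before imaging.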

Sequence	switch fluorescence ratio
GCATATTTAC	1.23
TCGTATGGTT	0.969
ACGTGCCTT	0.998
GGGATTAATC	1.05
TCCATACG	1.02
TATGCAAATT	1.02
CGCAGGGCGA	1.02
GAGCTAGCGC	1.08
TAATCCCCTG	1.04
GAGTTTTCAG	0.976
GGGAAAGTGT	1
GAAGTTCGGT	1.07
CGTCATAGA	0.98
CACTGGTCTT	0.991
CCAATCGGCA	1.07
CTGTTTGGA	1.1
GCCGTAAGG	0.947
AAGGGCGTTA	1.02
GTTATACTGA	0.962
TCCACCTTGA	0.992
GACAACGGGG	1.04
ACCACTTTCA	1.04
CAAGGAGTTG	0.997
CACTTTCTTG	0.986
AAAGCATTG	1.01
ACACTTACCG	1.21

Sequence	switch fluorescence ratio
GATTCTAAAA	1.01
GGATTAATTC	1.04
ATGCGGTTG	0.978
GGATCCTGCT	0.955
ACCAATCAGC	1.02
CGCTAGGGCT	1.01
TTGAAGCGAT	1.07
TCGATGACCG	1.13
TAAGGCTTGC	1.03
GTCAGAGCTT	1.01
CATCCAAGC	1.21
CGTAATCGAG	1.11
ATGAGAATGT	1.01
CATTGATTAC	1.02
TGAAAACCG	1
TTCGCCGG	0.953
TTTGGACCTG	1
CTGTAAGCGA	1.98
GGGAATCCGA	1.1
TTCACGTTCT	1.03
CCGAGTGCC	1.48
CGAGATGACT	0.984
ACATAAATC	1.03
GGGTAAGTAG	1.03
TGGCCTATGC	0.999
CGATGGAGTC	0.974

Sequence	switch fluorescence ratio
GCTTCTGTGC	1
CTGACGAACG	1.28
CATACACGGT	1.06
TGGCTGCTCC	1.1
TGTGCTTCGT	1.04
TAGTTCCTGC	1.05
GTAAGCGCGT	0.996
CGCTATCCGC	1.23
TGCCCTGG	1.04
CGTTGGGTGT	0.961
CCACCATGAG	1.07
CCTGCGCCAG	2.08
TACAAGCCGC	1.05
ATGATTGTGA	1.01
ACGATCGTAT	0.988
TCCTACATGC	1.64
CGTCGAGTTT	0.982
CAGAAAGAAT	0.989
AGTGTGCTCA	1
GACGACTCGT	1
GAGACGGGAG	0.979
TAGACCAATC	1.07
ACAACACGCA	1.34
GCATCAGGTC	1.02
CGCGTTAGCC	1.04
TAGGTTATGT	0.993

Sequence	switch fluorescence ratio
ATTGTATCTT	0.97
ATATTTATCT	0.997
CCAGGAATTA	1.07
ACCCTGAGTA	0.985
CCATCTTGGT	1.03
GCTAGGAACG	0.99
TATCACCACT	1.03
TGACAGTTTT	1.01
TGGGCGACAT	1.01
GCCATGTCTG	0.986
GGTATATATT	1.01
TAGCCGGGTA	1.03
TTTGATGCTT	0.995
CAAGGGTGTA	1.05
CATAAACGT	1.06
TAGTAATCTA	1.79
CTGTGCACGG	1.05
ATATGTAGCA	1.01
GCTCGATATT	1.01
TATCGGATAG	1.02
GCATCTAGGG	0.966
CGACATAATT	1.05
TTTAAGAAGA	1.02
CCTGAGACTT	1.01
CTTGGGCGTG	0.99
ATAGTTCTCG	1.01

Sequence	switch fluorescence ratio
TTTCTCCTAG	1.02
GAGCGTATTA	1.01
CCGTAGGGC	1.42
GGAATAGTTG	1.06
GGTATACACC	0.967
CTCGGTGATT	1
AATGCTGCGA	1.02
CAGGGGCAAA	1.1
AAGAAATCAT	0.981
CAGCCTCGGG	1.04
GGAATTTGGT	1
TTGTATTCG	1.05
TCCGTAGGTA	1.05
TGATTAACGT	1.03
GCGACCCGGT	1.18
GCGGTACGCA	1.01
GATTTGCGTT	0.978
AATTAAACGC	1.04
TTGATACCAA	1.03
AAAAAAGTAA	1.08
ATTTCGGCC	0.967
TAAAGGAGTC	1.03
ATACGTATTA	1.09
AAATAATATG	1
GGCACAATGC	1.25
ACTATGTAGC	1.06

Sequence	switch fluorescence ratio
TGCGTTAATG	0.994
ACGACGCTTT	1.39
TTATACCTAA	1.04
ATATGGGCCG	1.02
GAACACTGGG	1.01
AACTACAAAT	1.03
TTTCGTTGGG	0.98
TGTGAATGAT	1.04
ACCATTTCTA	1
GGATCATCGG	0.982
TTGTCTCTGT	0.947
TTCATAGTTG	0.963
TTGTGAACAT	1.02
TTACAGCGTT	1.03
TTGAAAGCCA	1.04
TTTATCGCTT	1.12
TAGGATGAGC	1.01
ATTGAATGCT	1.03
GATGCCTATC	1.02
AGGCTGTGG	0.979
TCCCTCATG	1.04
GCAAACAGCC	1.08
AGGCGAGAGG	0.98
ATACGTGTGC	0.999
